Data published in patent US20250034756A1 (Chugai, published 2025).

B1: EEIVH/EEIVLE (antibody, human IgG1, kappa)
heavy: QMQLVESGGGVVQPGRSLRLSCTASGFTFSNNGMHWVRQAPGKGLEWVAVIWFDGMNKFYVDSVKGRFTISRDNSKNTLYLEMNSLRAEDTAIYYCAREGDGSGIYYYYGMDVWGQGTTVTVSS[human IgG1 constant region not given here]
light: [about 100 residues not given here]TFGPGTKVDIKRLSGRSDNHTVAAPSVFIFPPSDEQLKSGTASVVCLLNNFYPREAKVQWKVDNALQSGNSQESVTEQDSKDSTYSLSSTLTLSKADYEKHKVYACEVTHQGLSSPVTKSFNRGEC
notes: IgG1
B2: EEIVH/EEIVLC (antibody, human IgG1, kappa)
heavy: QMQLVESGGGVVQPGRSLRLSCTASGFTFSNNGMHWVRQAPGKGLEWVAVIWFDGMNKFYVDSVKGRFTISRDNSKNTLYLEMNSLRAEDTAIYYCAREGDGSGIYYYYGMDVWGQGTTVTVSS[human IgG1 constant region not given here]
light: [about 100 residues not given here]TFGPGTKVDLSGRSDNHIKRTVAAPSVFIFPPSDEQLKSGTASVVCLLNNFYPREAKVQWKVDNALQSGNSQESVTEQDSKDSTYSLSSTLTLSKADYEKHKVYACEVTHQGLSSPVTKSFNRGEC
notes: IgG1
B3: EEIVH/EEIVLF (antibody, human IgG1)
heavy: QMQLVESGGGVVQPGRSLRLSCTASGFTFSNNGMHWVRQAPGKGLEWVAVIWFDGMNKFYVDSVKGRFTISRDNSKNTLYLEMNSLRAEDTAIYYCAREGDGSGIYYYYGMDVWGQGTTVTVSS[human IgG1 constant region not given here]
light: [about 100 residues not given here]TFGPGTKVDIKRTVLSGRSDNHAAPSVFIFPPSDEQLKSGTASVVCLLNNFYPREAKVQWKVDNALQSGNSQESVTEQDSKDSTYSLSSTLTLSKADYEKHKVYACEVTHQGLSSPVTKSFNRGEC
notes: IgG1
B4: EEIVH/EEIVLD (antibody, human IgG1, kappa)
heavy: QMQLVESGGGVVQPGRSLRLSCTASGFTFSNNGMHWVRQAPGKGLEWVAVIWFDGMNKFYVDSVKGRFTISRDNSKNTLYLEMNSLRAEDTAIYYCAREGDGSGIYYYYGMDVWGQGTTVTVSS[human IgG1 constant region not given here]
light: [about 100 residues not given here]TFGPGTKVDILSGRSDNHKRTVAAPSVFIFPPSDEQLKSGTASVVCLLNNFYPREAKVQWKVDNALQSGNSQESVTEQDSKDSTYSLSSTLTLSKADYEKHKVYACEVTHQGLSSPVTKSFNRGEC
notes: IgG1
B5: EEIVH/EEIVLB (antibody, human IgG1)
heavy: QMQLVESGGGVVQPGRSLRLSCTASGFTFSNNGMHWVRQAPGKGLEWVAVIWFDGMNKFYVDSVKGRFTISRDNSKNTLYLEMNSLRAEDTAIYYCAREGDGSGIYYYYGMDVWGQGTTVTVSS[human IgG1 constant region not given here]
light: [about 100 residues not given here]TFGPGTKVDIKRTLSGRSDNHVAAPSVFIFPPSDEQLKSGTASVVCLLNNFYPREAKVQWKVDNALQSGNSQESVTEQDSKDSTYSLSSTLTLSKADYEKHKVYACEVTHQGLSSPVTKSFNRGEC
notes: IgG1
B6: EEIVH/EEIVLEG (antibody, human IgG1)
heavy: QMQLVESGGGVVQPGRSLRLSCTASGFTFSNNGMHWVRQAPGKGLEWVAVIWFDGMNKFYVDSVKGRFTISRDNSKNTLYLEMNSLRAEDTAIYYCAREGDGSGIYYYYGMDVWGQGTTVTVSS[human IgG1 constant region not given here]
light: [about 100 residues not given here]TFGPGTKVDIKRLSGRSDNHGVAAPSVFIFPPSDEQLKSGTASVVCLLNNFYPREAKVQWKVDNALQSGNSQESVTEQDSKDSTYSLSSTLTLSKADYEKHKVYACEVTHQGLSSPVTKSFNRGEC
notes: IgG1
B7: EEIVH/EEIVLA (antibody, human IgG1, kappa)
heavy: QMQLVESGGGVVQPGRSLRLSCTASGFTFSNNGMHWVRQAPGKGLEWVAVIWFDGMNKFYVDSVKGRFTISRDNSKNTLYLEMNSLRAEDTAIYYCAREGDGSGIYYYYGMDVWGQGTTVTVSS[human IgG1 constant region not given here]
light: [about 100 residues not given here]TFGPGTKVDIKLSGRSDNHRTVAAPSVFIFPPSDEQLKSGTASVVCLLNNFYPREAKVQWKVDNALQSGNSQESVTEQDSKDSTYSLSSTLTLSKADYEKHKVYACEVTHQGLSSPVTKSFNRGEC
notes: IgG1
B8: EEIVHE/EEIVL (antibody, human IgG1, kappa)
heavy: QMQLVESGGGVVQPGRSLRLSCTASGFTFSNNGMHWVRQAPGKGLEWVAVIWFDGMNKFYVDSVKGRFTISRDNSKNTLYLEMNSLRAEDTAIYYCAREGDGSGIYYYYGMDVWGQGTTVTVSSALSGRSDNHSTKGPSVFPLAPSSKSTSGGTAALGCLVKDYFPEPVTVSWNSGALTSGVHTFPAVLQSSGLYSLSSVVTVPSSSLGTQTYICNVNHKPSNTKVDKKV[human IgG1 Fc not given here]
light: [about 100 residues not given here][about 120 residues not given here]
notes: IgG1
B9: EEIVHA/EEIVL (antibody, human IgG1, kappa)
heavy: QMQLVESGGGVVQPGRSLRLSCTASGFTFSNNGMHWVRQAPGKGLEWVAVIWFDGMNKFYVDSVKGRFTISRDNSKNTLYLEMNSLRAEDTAIYYCAREGDGSGIYYYYGMDVWGQGTTVTVSSLSGRSDNH[human IgG1 constant region not given here]
light: [about 100 residues not given here][about 120 residues not given here]
notes: IgG1
B10: EEIVHEG/EEIVL (antibody, human IgG1, kappa)
heavy: QMQLVESGGGVVQPGRSLRLSCTASGFTFSNNGMHWVRQAPGKGLEWVAVIWFDGMNKFYVDSVKGRFTISRDNSKNTLYLEMNSLRAEDTAIYYCAREGDGSGIYYYYGMDVWGQGTTVTVSSALSGRSDNHGTKGPSVFPLAPSSKSTSGGTAALGCLVKDYFPEPVTVSWNSGALTSGVHTFPAVLQSSGLYSLSSVVTVPSSSLGTQTYICNVNHKPSNTKVDKKV[human IgG1 Fc not given here]
light: [about 100 residues not given here][about 120 residues not given here]
notes: IgG1
B11: EEIVHG/EEIVL (antibody, human IgG1, kappa)
heavy: QMQLVESGGGVVQPGRSLRLSCTASGFTFSNNGMHWVRQAPGKGLEWVAVIWFDGMNKFYVDSVKGRFTISRDNSKNTLYLEMNSLRAEDTAIYYCAREGDGSGIYYYYGMDVWGQGTTVTVSSASTKLSGRSDNHGPSVFPLAPSSKSTSGGTAALGCLVKDYFPEPVTVSWNSGALTSGVHTFPAVLQSSGLYSLSSVVTVPSSSLGTQTYICNVNHKPSNTKVDKKV[human IgG1 Fc not given here]
light: [about 100 residues not given here][about 120 residues not given here]
notes: IgG1
B12: EEIVHBG/EEIVL (antibody, human IgG1, kappa)
heavy: QMQLVESGGGVVQPGRSLRLSCTASGFTFSNNGMHWVRQAPGKGLEWVAVIWFDGMNKFYVDSVKGRFTISRDNSKNTLYLEMNSLRAEDTAIYYCAREGDGSGIYYYYGMDVWGQGTTVTVSSASLSGRSDNHGKGPSVFPLAPSSKSTSGGTAALGCLVKDYFPEPVTVSWNSGALTSGVHTFPAVLQSSGLYSLSSVVTVPSSSLGTQTYICNVNHKPSNTKVDKKV[human IgG1 Fc not given here]
light: [about 100 residues not given here][about 120 residues not given here]
notes: IgG1
B13: EEIVHC/EEIVL (antibody, human IgG1, kappa)
heavy: QMQLVESGGGVVQPGRSLRLSCTASGFTFSNNGMHWVRQAPGKGLEWVAVIWFDGMNKFYVDSVKGRFTISRDNSKNTLYLEMNSLRAEDTAIYYCAREGDGSGIYYYYGMDVWGQGTTVTVLSGRSDNHSS[human IgG1 constant region not given here]
light: [about 100 residues not given here][about 120 residues not given here]
notes: IgG1
B14: EEIVHF/EEIVL (antibody, human IgG1, kappa)
heavy: QMQLVESGGGVVQPGRSLRLSCTASGFTFSNNGMHWVRQAPGKGLEWVAVIWFDGMNKFYVDSVKGRFTISRDNSKNTLYLEMNSLRAEDTAIYYCAREGDGSGIYYYYGMDVWGQGTTVTVSSASTLSGRSDNHKGPSVFPLAPSSKSTSGGTAALGCLVKDYFPEPVTVSWNSGALTSGVHTFPAVLQSSGLYSLSSVVTVPSSSLGTQTYICNVNHKPSNTKVDKKV[human IgG1 Fc not given here]
light: [about 100 residues not given here][about 120 residues not given here]
notes: IgG1
B15: EEIVHD/EEIVL (antibody, human IgG1, kappa)
heavy: QMQLVESGGGVVQPGRSLRLSCTASGFTFSNNGMHWVRQAPGKGLEWVAVIWFDGMNKFYVDSVKGRFTISRDNSKNTLYLEMNSLRAEDTAIYYCAREGDGSGIYYYYGMDVWGQGTTVTVSLSGRSDNHS[human IgG1 constant region not given here]
light: [about 100 residues not given here][about 120 residues not given here]
notes: IgG1
B16: EEIVHB/EEIVL (antibody, human IgG1, kappa)
heavy: QMQLVESGGGVVQPGRSLRLSCTASGFTFSNNGMHWVRQAPGKGLEWVAVIWFDGMNKFYVDSVKGRFTISRDNSKNTLYLEMNSLRAEDTAIYYCAREGDGSGIYYYYGMDVWGQGTTVTVSSASLSGRSDNHTKGPSVFPLAPSSKSTSGGTAALGCLVKDYFPEPVTVSWNSGALTSGVHTFPAVLQSSGLYSLSSVVTVPSSSLGTQTYICNVNHKPSNTKVDKKV[human IgG1 Fc not given here]
light: [about 100 residues not given here][about 120 residues not given here]
notes: IgG1

biological target: T1, human CXCL10 (human, UniProt P02778 22-98); assay: Biacore SPR, antibody captured on protein A (CM3 chip), human CXCL10 as analyte at 3.125, 1.563, 0.781 nM, 25 C
T1 construct: Two bought lots of the same protein are treated as one molecule; also called hCXCL10; IP-10

Binding result, binds:
B1
B2
B3
B4
B5
B6
B7

biological target: T1, human CXCL10; assay: as above; remark: another data set of the same source

Binding result, binds:
B8
B9
B10
B11
B12
B13
B14
B15
B16
